Experimental data: PubChem BioAssay (Tox21)
Several values for one entry are separate records, joined by “and”; a condition that tells them apart may be missing. Equal values may be shown once. This list was built around the results that the source calls inconclusive (neither active nor inactive); the mix of calls is not that of the screen. No potency is given beside an inconclusive call; the fits are too rough. Activity calls are given as the source filed them. Calls come from the whole dose curve; as a rule, active = well fitted curve in the direction sought with a large enough effect in the repeat runs; inconclusive = weak or mixed curves; inactive = no such curve, though single readings can be large; an effect the other way counts as inactive or inconclusive.
% is set by controls: 0 for no effect and ±100 for the full control effect; potency is the fitted concentration of half-maximal effect; tags give direction and shape of the fitted curve.

Experiment: qHTS RealTime-Glo MT Cell Viability Assay in HEK293 cells - 40 hour (AID 1224874); note: nearly all actives have a fitted effect of over 50% in size
Conditions: RealTime-Glo luminescence; max response: active compounds read low
How it was run: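 Measured as luminescence from the same continuously cultured HEK293 wells at successive time points (0, 8, 16, 24, 32, 40 h) after compound addition. Reagent present from seeding; dosing at 5 h; incubation 37 C.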
With `COc1cc(C(=O)NCCCCCC(=O)O)cc(OC)c1OC` the max response was inactive: 1.12%.
With `Cc1cc(C)nc(NS(=O)(=O)c2ccc(N)cc2)n1` the max response was inactive: -37.4% and inactive: -3.88% and inactive: 7.67%.
With `CC(=O)c1ccc([N+](=O)[O-])cc1` the max response was inactive: 11.2%.
In the case of `COc1cc(C)ccc1O`, the max response is reported as inactive: 3.04%.
With `Cc1ccc(S(=O)(=O)O)cc1` the max response was inactive: 2.66% and inactive: 6.16% and inactive: 6.13%.
With `COc1ccc2sc(C(=O)Nc3nnn[nH]3)c(OC(C)C)c2c1` the Potency was inconclusive [cytotoxic, partial curve].
With `Cc1ccc(S(N)(=O)=O)cc1` the Potency was inconclusive [cytotoxic, partial curve, poor fit].
For `CC(CC1c2ccccc2CCc2ccccc21)CN(C)C` (centres undefined), the Potency was inconclusive [cytotoxic, partial curve, poor fit].
In the case of `CCC1NC(=O)c2cc(S(N)(=O)=O)c(Cl)cc2N1` (centres undefined), the max response is reported as inactive: 6.45%.
With `O=C(O)Cc1ccccc1Oc1ccc(Cl)cc1Cl` the max response was inactive: 4.29%.
In the case of `O=[N+]([O-])c1ccccc1Nc1ccccc1`, the max response is reported as inactive: 0.685%.
For `CC(C)(C)C(=O)C1C(=O)c2ccccc2C1=O`, the max response was inactive: -29.9% and inactive: -11.1%.
With `CCCCCCCCO[C@@H]1O[C@H](CO)[C@@H](O)[C@H](O)[C@H]1O` the max response was inactive: 4.48%.
In the case of `Nc1ccn([C@H]2CS[C@@H](CO)O2)c(=O)n1`, the max response is reported as inactive: -7.77%.
In the case of `C=C(C)C(=O)OCCCCCCCCCCCCC`, the max response is reported as inactive: 4.36%.
With `CCCCCCOCCOCCO` the max response was inactive: 4% and inactive: -0.302%.
With `O=C(O)Cn1cnnn1` the max response was inactive: 0.0865%.
In the case of `CCCCCCC/C=C/C=O`, the max response is reported as inactive: 6.61%.
For `CCC(C(=O)NC(N)=O)c1ccccc1` (centres undefined), the max response was inactive: 5.63%.
For `CCCCC1=NC2(CCCC2)C(=O)N1Cc1ccc(-c2ccccc2-c2nn[nH]n2)cc1`, the max response was inactive: -1.18%.

Experiment: A CellTox Green Cytotoxicity Assay to monitor cytotoxicity in HEK293 cells - 24 hour (AID 1224875); note: nearly all actives have a fitted effect of over 45% in size
Conditions: CellTox Green fluorescence; series mostly up to 76.8 µM
How it was run: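 Homogeneous no-lysis format: HEK293 cell suspension mixed with CellTox Green reagent, seeded, incubated 5 h at 37 C/5% CO2, then dosed by pintool with compound in DMSO.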
For `COc1cc(C(=O)NCCCCCC(=O)O)cc(OC)c1OC`, the Potency was “inactive”.
With `CCC1Nc2cc(Cl)c(S(N)(=O)=O)cc2S(=O)(=O)N1` (centres undefined) the Potency was “inactive”.
With `CCn1cc(C(=O)O)c(=O)c2cc(F)c(N3CCNCC3)cc21` the Potency was “inactive”.
For `Nc1cc(=O)[nH]c(N)n1`, the Potency was “inactive”.
For `CCNc1nc(N)nc(Cl)n1`, the Potency was “inactive”.
With `CC=C(Cl)Cl` the Potency was inconclusive [activator, partial curve, poor fit].
With `NC(=O)c1cccnc1` the Potency was “inactive”.
For `NC(N)=S`, the Potency was “inactive”.
With `N#CCc1ccc(Cl)cc1Cl` the Potency was “inactive”.
With `CC(C)(C(=O)c1cccnc1)c1cccnc1` the Potency was “inactive”.
For `CN1CCCC1=O`, the Potency was “inactive”.
In the case of `CCCCCCCCC=O`, the Potency is reported as “inactive”.
With `CC(C)(C)C(=O)C(=O)O` the Potency was inconclusive [activator, single point].
With `CCCCCCOCCOCCO` the Potency was “inactive”.
With `CN1C(=O)OC(C)(C)C1=O` the Potency was “inactive”.
With `c1cnc2c(n1)CCCC2` the Potency was active: 43.6 µM.
For `OC/C(Br)=C(\Br)CO`, the Potency was inconclusive [activator, single point].
For `CCCCCOC(=O)CCCC`, the Potency was “inactive”.
In the case of `C=C(C)C(=O)OCC[N+](C)(C)C`, the Potency is reported as inconclusive [activator, partial curve, poor fit].
